This is one part of the list. Many values rest on one well or one pass, so single values are uncertain.
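Also: cells treated in 1,536-well plates, then fixed and DAPI-stained, with nuclei counted from automated high-throughput microscope images.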

The assay concerns WM3526. The assay can be described thus: cell count relative to DMSO control; melanoma cells; higher = more viable cells. The note with it: library dose: standard library concentration; 72 h.
`C[C@@H]1CCN(C(=O)CC#N)C[C@@H]1N(C)c1ncnc2[nH]ccc12` + Cc1cc([N+](=O)[O-])ccc1NS(=O)(=O)c1cc(Cl)ccc1Cl [FH535] (first compound 5 µM, partner dose 5 µM) came in with a cell count of 79.1%.

In turn, `O=c1[nH]nc(Sc2ncc([N+](=O)[O-])s2)n1-c1ccc2c(c1)OCCO2` + COc1ccc(COc2ccc(Cc3cnc(N)nc3N)cc2OC)cc1 [GW2580] (first compound 1 µM, partner dose 5 µM) registered a cell count of 104%.

Turning to `O=C(O)c1ccc(-c2c[nH]c3ncc(-c4ccccc4)cc23)cc1C1CCCC1` + Oc1cc(-c2nc(-c3ccccc3)[nH]c2-c2ccncc2)ccc1Cl [L779450] (first compound 0.8 µM, partner dose 1 µM), the cell count turned out to be 45.5%.

For the compound `CC1(C)NC(=O)N(c2ccc([N+](=O)[O-])c(C(F)(F)F)c2)C1=O` [nilutamide] + COc1ccc(-c2ccc3c(N4CCOCC4)nc(N4C[C@@H](C)O[C@@H](C)C4)nc3n2)cc1CO [KU0063794] (first compound 5 µM, partner dose 0.1 µM), the cell count came out at 89.1%.

In the case of `O=c1[nH]nc(Sc2ncc([N+](=O)[O-])s2)n1-c1ccc2c(c1)OCCO2` + C[C@@H](Oc1cc(-c2cnn(C3CCNCC3)c2)cnc1N)c1c(Cl)ccc(F)c1Cl [Crizotinib] (first compound 1 µM, partner dose 1 µM), the cell count turned out to be 89.1%.

As to `O=C(Nc1cccc(Cl)c1)Nc1ncc(CCNc2ncnc3ccsc23)s1` + Cc1cc([N+](=O)[O-])ccc1NS(=O)(=O)c1cc(Cl)ccc1Cl [FH535] (first compound 0.004 µM, partner dose 5 µM), the cell count was found to be 74.7%.

As for `O=c1[nH]nc(Sc2ncc([N+](=O)[O-])s2)n1-c1ccc2c(c1)OCCO2` + O=S(=O)(c1ccccc1)N(CC(F)(F)F)c1ccc(C(O)(C(F)(F)F)C(F)(F)F)cc1 [T0901317] (first compound 1 µM, partner dose 7 µM), the cell count came to 70.7%.

`COc1cc(Nc2ncc(F)c(Nc3ccc4c(n3)NC(=O)C(C)(C)O4)n2)cc(OC)c1OC` [Tamatinib] + O=c1cc(-c2cccc3c2Sc2ccccc2S3)oc(N2CCOCC2)c1 [KU55933] (first compound 2 µM, partner dose 5 µM) came in with a cell count of 74.7%.

In the case of `O=C(O)c1ccc(-c2c[nH]c3ncc(-c4ccccc4)cc23)cc1C1CCCC1` + O=C1NC(=O)/C(=C/c2ccc(-c3ccc(F)cc3O)o2)S1 [AS252424] (first compound 0.8 µM, partner dose 5 µM), the cell count turned out to be 79.4%.

`O=c1[nH]nc(Sc2ncc([N+](=O)[O-])s2)n1-c1ccc2c(c1)OCCO2` + CCCCCCCCCCCC1=C(O)C(=O)C=C(O)C1=O [Embelin] (first compound 1 µM, partner dose 6 µM) displayed a cell count of 84%.

Take `O=c1[nH]nc(Sc2ncc([N+](=O)[O-])s2)n1-c1ccc2c(c1)OCCO2` + Oc1cc(-c2nc(-c3ccccc3)[nH]c2-c2ccncc2)ccc1Cl [L779450] (first compound 1 µM, partner dose 1 µM): the cell count was 60.7%.

As to `O=c1[nH]nc(Sc2ncc([N+](=O)[O-])s2)n1-c1ccc2c(c1)OCCO2` + Oc1nc(-c2ccc(C(F)(F)F)cc2)nc2c1CSCC2 [XAV939] (first compound 1 µM, partner dose 10 µM), the cell count is 104%.

In turn, `O=c1[nH]nc(Sc2ncc([N+](=O)[O-])s2)n1-c1ccc2c(c1)OCCO2` + COC(=O)c1sccc1S(=O)(=O)Nc1ccc(Nc2ccccc2)cc1OC [GSK0660] (first compound 1 µM, partner dose 5 µM) came in with a cell count of 100%.

Compound `O=C(Nc1cccc(Cl)c1)Nc1ncc(CCNc2ncnc3ccsc23)s1` + COc1ccc2c(c1)CCC1C2CCC2(C)C(NCCCCCCN3C(=O)C=CC3=O)CCC12 [U73122] (first compound 0.004 µM, partner dose 2 µM) gave a cell count of 72.9%.

Take `COc1cc(Nc2ncc(F)c(Nc3ccc4c(n3)NC(=O)C(C)(C)O4)n2)cc(OC)c1OC` [Tamatinib] + Oc1cc(-c2nc(-c3ccccc3)[nH]c2-c2ccncc2)ccc1Cl [L779450] (first compound 2 µM, partner dose 1 µM): the cell count was found to be 48.1%.

The compound `O=c1[nH]nc(Sc2ncc([N+](=O)[O-])s2)n1-c1ccc2c(c1)OCCO2` + O=C(Nc1ccccc1)c1cc([N+](=O)[O-])ccc1Cl [GW9662] (first compound 1 µM, partner dose 10 µM) displayed a cell count of 76.9%.

In turn, `COc1cc(Nc2ncc(F)c(Nc3ccc4c(n3)NC(=O)C(C)(C)O4)n2)cc(OC)c1OC` [Tamatinib] + COc1cc2ncnc(Nc3ccc(Oc4ccccc4)cc3)c2cc1OC [SrcI1] (first compound 2 µM, partner dose 10 µM) yielded a cell count of 55.7%.

In turn, `O=c1[nH]nc(Sc2ncc([N+](=O)[O-])s2)n1-c1ccc2c(c1)OCCO2` + CC(C)CCN1c2nc(Nc3cc(F)c(O)c(F)c3)ncc2N(C)C(=O)C1C [BID1870] (first compound 1 µM, partner dose 1 µM) returned a cell count of 62.8%.

As for `O=C(O)c1ccc(-c2c[nH]c3ncc(-c4ccccc4)cc23)cc1C1CCCC1` + COC(=O)c1sccc1S(=O)(=O)Nc1ccc(Nc2ccccc2)cc1OC [GSK0660] (first compound 0.8 µM, partner dose 5 µM), the cell count worked out at 69.2%.

`O=c1[nH]nc(Sc2ncc([N+](=O)[O-])s2)n1-c1ccc2c(c1)OCCO2` + Cn1cc(/C=C2\C(=O)Nc3cccnc32)c2ccccc21 [GW441756] (first compound 1 µM, partner dose 2 µM) displayed a cell count of 92.6%.

As to `O=c1[nH]nc(Sc2ncc([N+](=O)[O-])s2)n1-c1ccc2c(c1)OCCO2` + COc1ccc(-c2ccc3c(N4CCOCC4)nc(N4C[C@@H](C)O[C@@H](C)C4)nc3n2)cc1CO [KU0063794] (first compound 1 µM, partner dose 0.1 µM), the cell count worked out at 84.4%.

Consider `Cn1cncc1[C@@](N)(c1ccc(Cl)cc1)c1ccc2c(c1)c(-c1cccc(Cl)c1)cc(=O)n2C` [tipifarnib] + COc1ccc2c(c1)CCC1C2CCC2(C)C(NCCCCCCN3C(=O)C=CC3=O)CCC12 [U73122] (first compound 0.05 µM, partner dose 2 µM), for which the cell count came out at 87.7%.

`O=c1[nH]nc(Sc2ncc([N+](=O)[O-])s2)n1-c1ccc2c(c1)OCCO2` + CCN(CC)CCCCNc1ncc2cc(-c3cc(OC)cc(OC)c3)c(NC(=O)NC(C)(C)C)nc2n1 [PD173074] (first compound 1 µM, partner dose 0.5 µM) had a cell count of 106%.

`O=c1[nH]nc(Sc2ncc([N+](=O)[O-])s2)n1-c1ccc2c(c1)OCCO2` + COc1cc2ncnc(Nc3ccc(Oc4ccccc4)cc3)c2cc1OC [SrcI1] (first compound 1 µM, partner dose 10 µM) came in with a cell count of 67.8%.

As to `O=c1[nH]nc(Sc2ncc([N+](=O)[O-])s2)n1-c1ccc2c(c1)OCCO2` + O=C1NC(=O)/C(=C/c2ccc(-c3ccc(F)cc3O)o2)S1 [AS252424] (first compound 1 µM, partner dose 5 µM), the cell count worked out at 96.6%.

With `O=c1[nH]nc(Sc2ncc([N+](=O)[O-])s2)n1-c1ccc2c(c1)OCCO2` + CCc1ccc(CCOc2ccc(CC3SC(=O)NC3=O)cc2)nc1 [pioglitazone] (first compound 1 µM, partner dose 10 µM), the cell count came out at 105%.

`O=c1[nH]nc(Sc2ncc([N+](=O)[O-])s2)n1-c1ccc2c(c1)OCCO2` + O=C(O)C(=O)Nc1sc2c(c1C(=O)O)CCNC2 [TCS401] (first compound 1 µM, partner dose 8.33333 µM) had a cell count of 90.1%.

The compound `O=c1[nH]nc(Sc2ncc([N+](=O)[O-])s2)n1-c1ccc2c(c1)OCCO2` + Nc1cccc2c1CN(C1CCC(=O)NC1=O)C2=O [lenalidomide] (first compound 1 µM, partner dose 5 µM) gave a cell count of 75.2%.

In turn, `O=c1[nH]nc(Sc2ncc([N+](=O)[O-])s2)n1-c1ccc2c(c1)OCCO2` + c1cc(-c2cnn3cc(-c4ccc(OCCN5CCCCC5)cc4)cnc23)ccn1 [Dorsomorphin] (first compound 1 µM, partner dose 2 µM) gave a cell count of 88.5%.

Take `O=c1[nH]nc(Sc2ncc([N+](=O)[O-])s2)n1-c1ccc2c(c1)OCCO2` + COc1ccc2c(c1)CCC1C2CCC2(C)C(NCCCCCCN3C(=O)C=CC3=O)CCC12 [U73122] (first compound 1 µM, partner dose 2 µM): the cell count was 86.9%.

In turn, `C[C@@H]1CCN(C(=O)CC#N)C[C@@H]1N(C)c1ncnc2[nH]ccc12` + Oc1nc(-c2ccc(C(F)(F)F)cc2)nc2c1CSCC2 [XAV939] (first compound 5 µM, partner dose 10 µM) registered a cell count of 92.4%.

The record behind these values is the supplement of paper PMC4604168 (melanoma cell lines).
